Test results published in the RNAGym collection of RNA variant scans (doi:10.7554/elife.90254).
The source gives no read counts; variants with many changes may rest on few reads.

B1: LINE1-mini (parent)
chain: GGCAGAGCUCAACACAGCGUGGCAAAGUGGCUGUGGCUAGACUGCC

Variants of: B1
Assay: self-cleavage, relative activity (ratio to wild type); higher = more cleavage; in vitro, sequencing; the parent is a self-cleaving ribozyme

Variant | self-cleavage
UGCAGAGCUAAACACAGCGUGUCAAAGUUGCUGUGGCUAGACUACC | 0.02
UGCAGAGCUCAACAAAGCGUGGCCAAGUGUCUGUGGCUAGACUGCC | 0.08
UGCAGAGCUUAACACAGCGUGGUAAAGUGUCUGUUGCUAGACUGCC | 0.01
UGCAGAGCUCAACACAGCGUGGAAAAGUGGCUGAGGCUAGACUGGC | 0.02
UGCAGAGCUCAACACAGCGUGGAAAAGUGGCUGUGGCUAGACUGAC | 0.97
UGCAGAGCUCAACACAGCGUGGCAAAGUGGAUGUGGCUAGAUCGCC | 0.02
UGCAGAGCUAACCACAGCGUGGCACAGUGGCUCUGGCUAGACUGCC | 0.04
UGCAGAGCUCAACACAGAGUGGCAAACUGGCUGUGCCUAUACUUCC | 0
UGCAGAGCUCAACACAGGGUGGCAAAGUGGCUGUGGCUAGAAUGCC | 0
UGCAGAGCUAAGCACAGCGUGGCAAAGUGGCUGUGGCUAGACUGCC | 0
UGCAGAGCUCAACAGAUCGUGGCAAAGUGGCUGUGGGUAGACUGCC | 0
UGCAGAGCUCAAGAUAGCGUGGCAAAGUGGCUGUGGCUAGACUGCC | 0.06
UGCAGAGCUGAACACGGCGUGGGAAAGUGGCUGUGGCUAGACUGCC | 0.01
UGCAGAGCUCAACACAGGGUGGCCAAGUGGCUGUGGCUAGACUGCC | 0.12
UGCAGAGCUCAACAAAGCGAGGCAAAGUGGCUGUGGCUAGACUGCC | 0.07
UGCAGAGCUCAACACAGCGUGGAAAAGUGGCUGUGGCCAGACUGCC | 0.43
UGCAGAGCUCAAGACAGCUUGGCAAAGUGGCUGUGGCUAGACUGCC | 0.04
UGCAGAGCUCAAACCAACGUGGCAAAGUGGCUGUUGCUAGACUGCC | 0.03
UGCAGAGCUCAACACAGGGUGGCAAAGUGGCUGUGGCUAGACUGCA | 0.07

Variant | self-cleavage
UGCAGAGCUGAACACAGCGUGCCAAAGUGGCUGUGGCUAGACUGCC | 0.01
UGCAGAGCUUAACACAGCGUGGCAAAUUGGCUGUGGCUAGACUUCC | 0.07
UGCAGAGCUCAACACAGGGUCGCAAAGUGGCUGCGGCUAGACUGCC | 0.01
UGCAGAGCUCAACACAGAGUGGCAAAUUGGCUGGGGCUACACUGCC | 0.03
UGCAGAGCUCAACAUAUCGUCGCAAGUUGGCUGUGGCUAGACUGCC | 0.09
UGCAGAGCUCAACACAGCGUGGAAAAGUGGCUGUGGCUAGUCUGCC | 0.17
UGCAGAGCUAAAGACAGCGUGGCAAAGUGGCUGUGGCUAGACUGCC | 0.03
UGCAGAGCUCAACACAGAGUGGCAAAGUUGCAGUGGCUAGACUGCC | 0.02
UGCAGAGCUCAAUCCAGCGUGGAAAAGUGGCUGUGGCUAGACUGCC | 0.03
UGCAGAGCUCAACAAACCGUAGCAAAGUGGCUGUGCCUAGACUGCC | 0.02
UGCAGAGCUCAAGACAGCGUGGCAAACUGGCUGUGGCUAGACUGCC | 0.01
UGCAGAGCUCAAAACAGCGUGGCAAAGUUGCUGUGGCUAGACUGCC | 0
UGCAGAGCUCAACAAAGCGUGUCCAAGUGGCUGUCACUAGACCGCC | 0.02
UGCAGAGCUUAACACAGCGUGGCAAACUGGAUGUGGAUAGACUACC | 0.01
UGCAGAGCUCAACACAGUGUGGCAAAUUGGCUGUGGCUAGACUGCC | 0.29
UGCAGAGCUCAAUACAGCGUGGCAAAGUGGAUGUGGCUAGAUUGCC | 0.11
UGCAGAGCUCAACAUAGCGUGGAUAAGUGGCUGUGGCUGGACUGCC | 0.07
UGCAGAGCUCAAAACAGCGUGGCAAAGUGGCUGUGGCUAGUCUGCC | 0.03
UGCAGAGCUCAAAGCAGCGUGGCAAAGUCGCUGUGGCUAGACUGCC | 0.02

Variant | self-cleavage
UGCAGAGCUCAACACAGAGUGGUAAAGUGGCUGUUGCUAGACUGCC | 0.05
UGCAGAGCUCAAAACAGCGUGGAAAAGGGGCUGUGGCCAGACUCCC | 0.02
UGCAGAGCUAAACUCAGCGUGGCAAAGUGGCUGCGGCUAGACUGCC | 0.03
UGCAGAGCUAGACACAGCGUGGCAAAGUGGCUUUGGCUAGACUGCC | 0.04
UGCAGAGCUCAACAGAGCGUUGCAGAGUGUCUGUGGCUAGACUGCC | 0
UGCAGAGCUCAAGACACCGUGGCAAAGUGGCUGUGGCUAGACUGCC | 0.14
UGCAGAGCUUAGCACAGCGUGGCAAAGUGGCUGUGGCUAGACUGCU | 0.01
UGCAGAGCUCAAUACAGCGUCGCAAAGUAGCUGUGGCUAGACUGCU | 0.13
UGCAGAGCUCAACAUAGCGUGGCAAAGUGGCUGGGGCUAGACUGCC | 0.02
UGCAGAGCUAAACACAUCGUGGCAAAGUGGCUGUGGCUAGACUGCA | 0.04
UGCAGAGCUAAACACAGUGUGGCAAACUUGCUGUGGCUAGACUACC | 0.01
UGCAGAGCUCAACAUAGCGUGGCAACGUGGCUGUGGCUAGACUGCC | 0.12
UGCAGAGCUCAACAUAGCGUGGCAAGGUGGCUGUGGCUAGACUGCC | 0.06
UGCAGAGCUCAACACAGAGUAGCACAGUGGCUGUGGCUAAACUGCU | 0.01
UGCAGAGCUCAACACAGCGUGGUAAAGUGGCUGCGGCUAGACUGCC | 0.1
UGCAGAGCUCAAGACAGCGUAGCAAAGUUGCUGUGUCUAGACCGCC | 0.05
UGCAGAGCUCAAAACAGGGUGGCAAAGUGGGUGUGGCUACACUGCC | 0.01
UGCAGAGCUAAACACAGCGUGGCAAAGUGGCUGUGGUUAGACUGCC | 0.01
